Measured values reported in patent CN114573704A (dated 2022).
Changes are numbered by the printed parent chain.

B1: 0076#_hIgG4 (Fc fusion)
chain: EVQLVESGGGLVQPGGSLRLSCAASTYTFKDKCMGWFRQAPGKEREGVSVVDRFGGTIYADSVKGRFTISRDNSKNTLYLQMNSLRAEDTAVYYCAAGSYTSAGSCQPDALWGQGTLVTVSS[omitted - human IgG4 Fc with S228P (EU numbers)]
B2: 0078#_hIgG4 (Fc fusion)
chain: B1 chain with G104H
notes: The text says 0078#
B3: 32#_hu_1 (Fc fusion)
chain: EVQLVESGGGLVQPGGSLRLSCAASGFRYSPILMGWFRQAPGKGLEGVSSIDSVGATDYADSVKGRFTISRDNSKNTLYLQMNSLRAEDTAVYYCAAALMRTYLPLQPRQYDFWGQGTLVTVSS[omitted - human IgG1 Fc]
notes: not shown: linker between VHH and Fc
B4: 32#_hu_2 (Fc fusion)
chain: B3 chain with L45R
notes: as for B3
B5: 32#_hu_3 (Fc fusion)
chain: B3 chain with G44D, L45R
notes: also called 32#_hu_3-hIgG1; not shown: linker between VHH and Fc
B6: 61# (Fc fusion)
chain: HVQLVESGGGSVQAGGSLRLSCAASGYTYSSLCMGWFRQAPGKEREGVATIYTGDSSTYYADSVKGRFTISQDNAKNTVYLQMNSLKPEDTAMYYCAAAYGRRWCERLYMYDSWGQGTQVTVSS[omitted - human IgG1 Fc]
notes: as for B3
B7: 106# (Fc fusion)
chain: EVQLVESGGGSAQAGGSLRLSCTSSTYTFKNKCMGWFRQAPGKEREGVAVVDRFGGTIYAASVKGRFAISKDDAKNTLDLLMNSLKPEDTAMYYCAAGSYTSANSCQPDALWGQGTQVTVSS[omitted - human IgG1 Fc]
notes: as for B3
B8: 112# (Fc fusion)
chain: B7 chain with F54Y, T57I, P87A, A103D, N104G, Q117L
notes: as for B3
B9: 107# (Fc fusion)
chain: DVQLVGSGGGSVQVGGSLRLSCAASGYTGNRRYCMGWFRQAPGNEREGVAVINTGANTTYYADSVKGRFTISQDNAKNTVYLQMNSLKPEDTAMYYCGVGWRALCEVNGYVYDSWGQGTQVTVSS[omitted - human IgG1 Fc]
notes: also called 107#-IgG1; not shown: linker between VHH and Fc
B10: 7# (Fc fusion)
chain: HVQLVESGGGSVQAGGSLRLACASSRNTNRYNFMTWFRQAPGKEREGVAAIYTGFGNTYYADSVKGRFTISQDNAKNTVYLQMNSLKPEDTAMYHCAAALRDGSWSSQNYDYWGQGTQVTVSS[omitted - human IgG1 Fc]
notes: also called 7#-IgG1; not shown: linker between VHH and Fc
B11: 32# (Fc fusion)
chain: QVQLVESGGGSVQAGGSLRLSCAVSGFRYSPILMGWFRQGPGKDREGVASIDSVGATDYADSVKGRFTISRDNAENTLFLQMNSLKPEDTGMYYCAAALMRTYLPLQPRQYDFWGQGTLVTVSS[omitted - human IgG1 Fc]
notes: also called 32#-IgG1; not shown: linker between VHH and Fc
B12: 106#_hu_1_hIgG4 (Fc fusion)
chain: B1 chain with D31N, G104N
B13: 32#_hu_3_hIgG4 (Fc fusion)
chain: EVQLVESGGGLVQPGGSLRLSCAASGFRYSPILMGWFRQAPGKDREGVSSIDSVGATDYADSVKGRFTISRDNSKNTLYLQMNSLRAEDTAVYYCAAALMRTYLPLQPRQYDFWGQGTLVTVSS[omitted - human IgG4 Fc with S228P (EU numbers)]
notes: Expressed in HEK293, purified on Protein A; also called 32#_hu_3_IgG4
B14: 7#_hu_4_hIgG4 (Fc fusion)
chain: EVQLVESGGGLVQPGGSLRLSCAASRNTNRYNFMTWFRQAPGKEREGVSAIYTGFGNTYYADSVKGRFTISQDNSKNTLYLQMNSLRAEDTAVYYCAAALRDGSWSSQNYDYWGQGTLVTVSS[omitted - human IgG4 Fc with S228P (EU numbers)]
notes: Expressed in HEK293, purified on Protein A
B15: 107#_hu_4_hIgG4 (Fc fusion)
chain: EVQLVESGGGLVQPGGSLRLSCAASGYTGNRRYCMGWFRQAPGKEREGVSVINTGANTTYYADSVKGRFTISRDNSKNTLYLQMNSLRAEDTAVYYCGVGWRALCEVNGYVYDSWGQGTLVTVSS[omitted - human IgG4 Fc with S228P (EU numbers)]
notes: as for B14
B16: 32#_hu_4 (Fc fusion)
chain: B3 chain with S49A
notes: as for B3
B17: 32#_hu_5 (Fc fusion)
chain: B3 chain with A24V
notes: as for B3
B18: 61#_hu_1 (Fc fusion)
chain: EVQLVESGGGLVQPGGSLRLSCAASGYTYSSLCMGWFRQAPGKGLEGVSTIYTGDSSTYYADSVKGRFTISRDNSKNTLYLQMNSLRAEDTAVYYCAAAYGRRWCERLYMYDSWGQGTLVTVSS[omitted - human IgG1 Fc]
notes: as for B3

Target: PD-1 on JURKAT-PD-1 cells (Promega) (human, UniProt Q15116 25-288)
Assay: cell-based or functional assay

B1 was tested, and the “解除PD-1/PD-L1阻断的免疫激活的IC50 (NFAT luciferase reporter, Jurkat-PD-1 with CHO-PD-L1 aAPC cells)” value was 14.2 nM.

Target: T1, 人PD-1全长蛋白 on CHO-PD-1 cells (human, UniProt Q15116 25-288)
T1 construct: also called 细胞表面抗原PD-1; human PD-1
Assay: flow cytometry on CHO-PD-1 cells, FITC anti-human IgG

B2: binds.

Target: T2, 筛选及检测用人PD-1抗原 (human PD-1 extracellular domain with His tag, Sino Biological Cat.10377-H08H) (human, UniProt Q15116 partial chain)
T2 construct: Bought product; the entry holds the extracellular domain and the His tag; also called PD-1蛋白
Assay: ELISA, antibody coated, His-tagged PD-1 titrated, anti-His-HRP

B3 and B4 are within 1.5-fold of each other in EC50: 4.08 nM for the first, 3.43 nM for the second.

Going from B5 to B6, the EC50 falls from 2.98 nM to 1.85 nM (1.6-fold).

B7 and B8 are within 1.5-fold of each other in EC50: 2.56 nM for the first, 2.51 nM for the second.

First: B9
Second: B10
The EC50 of the first is 1.7-fold higher: 3.14 nM for the first, 1.86 nM for the second.

Work on B11 yielded an EC50 of 1.99 nM.

Target: T3, 猴PD-1 (Sino Biological Cat.90311-C08H) (monkey (猴))
T3 construct: also called monkey PD-1
Assay: as above

First: B3
Second: B4
The EC50 of the first is 2.7-fold higher: 6.2 nM for the first, 2.3 nM for the second.

First: B5
Second: B7
The EC50 of the first is 1.8-fold higher: 1.2 nM for the first, 0.67 nM for the second. The second is the more potent here.

First: B8
Second: B9
The EC50 of the first is 1.9-fold lower: 1.5 nM for the first, 2.9 nM for the second.

Going from B10 to B11, the EC50 rises from 2.2 nM to 4.8 nM (2.2-fold).

Target: T2, 筛选及检测用人PD-1抗原 (human PD-1 extracellular …)
Assay: SPR Biacore T200, antibody captured on protein A CM5 chip, PD-1-His as analyte

Going from B12 to B13, the Kd falls from 86.3 nM to 19.2 nM (4.5-fold). The second binds more tightly here.

B14 and B15 are within 1.5-fold of each other in Kd: 124 nM for the first, 128 nM for the second.

Compared with B12, B13 is 2.9-fold higher in koff: 0.000705 s⁻¹ for the first, 0.00201 s⁻¹ for the second.

First: B14
Second: B15
The koff of the first is 4.9-fold higher: 0.00584 s⁻¹ for the first, 0.0012 s⁻¹ for the second.

Going from B12 to B13, the kon rises from 8170 M⁻¹ s⁻¹ to 105000 M⁻¹ s⁻¹ (13-fold).

Compared with B14, B15 is 5-fold lower in kon: 47200 M⁻¹ s⁻¹ for the first, 9400 M⁻¹ s⁻¹ for the second.

Target: T2, 筛选及检测用人PD-1抗原 (human PD-1 extracellular …)
Assay: SPR Biacore 8K, antibody captured by anti-human IgG Fc on CM5, PD-1 (SEQ ID NO: 3) as analyte

Going from B3 to B4, the Kd falls from 16.3 nM to 9.36 nM (1.7-fold).

Going from B5 to B16, the Kd rises from 9.11 nM to 20.2 nM (2.2-fold). The first binds more tightly here.

First: B17
Second: B6
The Kd of the first is 3.7-fold higher: 19.6 nM for the first, 5.33 nM for the second.

B7 and B9 are within 1.5-fold of each other in Kd: 6.01 nM for the first, 8.1 nM for the second.

Going from B10 to B11, the Kd rises from 2.06 nM to 6.35 nM (3.1-fold). The first binds more tightly here.

B18 was tested, and the Kd was 20.4 nM.

Going from B3 to B4, the koff falls from 0.00291 s⁻¹ to 0.00156 s⁻¹ (1.9-fold).

Compared with B5, B16 is 1.8-fold higher in koff: 0.00201 s⁻¹ for the first, 0.00353 s⁻¹ for the second.

Going from B17 to B6, the koff falls from 0.00319 s⁻¹ to 0.000819 s⁻¹ (3.9-fold).

Going from B7 to B9, the koff rises from 0.000477 s⁻¹ to 0.000782 s⁻¹ (1.6-fold).

Compared with B10, B11 is 7.4-fold higher in koff: 0.000281 s⁻¹ for the first, 0.00207 s⁻¹ for the second.

Binder B18 has a koff of 0.00461 s⁻¹.

B3 and B4 are within 1.5-fold of each other in kon: 179000 M⁻¹ s⁻¹ for the first, 167000 M⁻¹ s⁻¹ for the second.

B5 and B16 are within 1.5-fold of each other in kon: 220000 M⁻¹ s⁻¹ for the first, 175000 M⁻¹ s⁻¹ for the second.

B17 and B6 are within 1.5-fold of each other in kon: 162000 M⁻¹ s⁻¹ for the first, 154000 M⁻¹ s⁻¹ for the second.

B7 and B9 are within 1.5-fold of each other in kon: 79400 M⁻¹ s⁻¹ for the first, 96500 M⁻¹ s⁻¹ for the second.

First: B10
Second: B11
The kon of the first is 2.4-fold lower: 136000 M⁻¹ s⁻¹ for the first, 325000 M⁻¹ s⁻¹ for the second.

B18 gave a kon of 226000 M⁻¹ s⁻¹.
